Data reported in ChEMBL document CHEMBL4888484, “Replenishing the malaria drug discovery pipeline: Screening and hit evaluation of the MMV Hit Generation Library 1 (HGL1) against asexual blood stage Plasmodium falciparum ,using a nano luciferase reporter read-out” (2022).
Where “and” joins values, the source holds several entries; their conditions need not be identical. Identical values can stand only once. Out of some 150,000 compounds screened, about 540 (0.36%) showed an effect of 50% or more. The list shows a part of the results.

Tested on: Plasmodium falciparum
Experiment: Primary screen in NF54 nanoGlo assay, in single point, at 2uM, 72h; a lower Z score goes with more inhibition
Format: functional, Erythrocyte
Conditions: timepoint 72 hour

COc1cccc(-c2noc3nc(C)cc(C(=O)NCCCn4ccc(C)n4)c23)c1
% Inhibition: 35% | Z score: -1.21

CC(C)n1ccc(Cn2c(=O)n(C)c3ccccc32)n1
% Inhibition: -2% | Z score: 0.2

C#CCCC(=O)N(C)CCOc1ccc(CC)cc1
% Inhibition: -6% | Z score: 0.79

CNC(=O)CCN1CCN(CC(F)(F)F)c2ccccc21
% Inhibition: -16% | Z score: 1.69

O=C(Nc1ccccn1)c1cn(-c2ccccn2)c(=O)c2ccccc12
% Inhibition: -10% | Z score: 1.1

Cc1cccc(C)c1NC(=O)CC(C)(C)C
% Inhibition: -4% | Z score: 0.47

CN(C)C(=O)NC[C@]1(O)CCCN(Cc2cnc3cc(O)ccc3c2)CC1
% Inhibition: -9% | Z score: 1.22

CCNC(=O)N(Cc1c(-c2ccccc2)nn(C)c1Oc1ccccc1)C[C@H]1CCCO1
% Inhibition: -9% | Z score: 0.79

CC[C@H](C)[C@H](NC(=O)Nc1cc(C(=O)OC)c(F)cc1F)C(=O)OC(C)(C)C
% Inhibition: -4% | Z score: 0.31

COc1cc(C(=O)O)cc(-c2cccc3ncccc23)n1
% Inhibition: -7% | Z score: 1.07

COCCNCC(=O)NC1CCCCC1C(C)(C)C (configuration not stated)
% Inhibition: -5% | Z score: 0.48

N#CCN1CCN(Cc2nc(-c3cccs3)no2)CC1
% Inhibition: -4% | Z score: 0.74

Cc1nc2ccccc2nc1NC1CCN(CC(N)=O)CC1
% Inhibition: 0% | Z score: -0.03

COC(=O)Nc1cccc(NC(=O)N[C@@H](C)[C@H]2COC(C)(C)O2)c1
% Inhibition: -8% | Z score: 1.72

c1ccc(COc2nc3c(s2)CCCC3)nc1
% Inhibition: 7% | Z score: -0.86

C1=CC2=NN=C(c3ccccc3)CN2C=C1
% Inhibition: -2% | Z score: 0.21

O=S(=O)(C1COC1)N(C1CC1)C1COC1
% Inhibition: 2% | Z score: -0.3

Cc1cc(O[C@H]2CCN(C(=O)c3ccc(=O)n(C)n3)C2)nc(C)n1
% Inhibition: -1% | Z score: 0.16

Cc1ccc(O)cc1C(=O)N1CCC2(CCCC2)C1
% Inhibition: -8% | Z score: 1.09

CC(C)CCOc1ccc([C@@H](CC(N)=O)CC(=O)O)cc1
% Inhibition: -9% | Z score: 1.15

OCCC1CCN(c2ncc(-c3ccccc3)s2)CC1
% Inhibition: -17% | Z score: 2.69

CN1C(=O)CC[C@]2(C(=O)N3CCCC3)CCCC[C@@H]12
% Inhibition: -4% | Z score: 0.34

CC(C)c1ccc(-n2ncnc2CN2CCCCC2=O)cc1
% Inhibition: 6% | Z score: -0.82

OCC#Cc1csc(CN2CC(c3ccccn3)C2)c1
% Inhibition: 7% | Z score: -0.95

CC(C)c1ccccc1O[C@@H](C)C(N)=O
% Inhibition: -5% | Z score: 0.71

Cc1c(C(=O)NCCCOC(C)C)cnn1C
% Inhibition: 1% | Z score: -0.1

CC(C)C[C@@H](CNC(=O)c1ncoc1-c1ccccc1Cl)N1CCOCC1
% Inhibition: -9% | Z score: 1.29

c1ccc2sc(-c3nccn3Cc3nnc4n3CCCCC4)cc2c1
% Inhibition: -9% | Z score: 1.66

CS(=O)(=O)c1ccc2nc(NC(=O)c3ccccc3-c3ccccc3)sc2c1
% Inhibition: 2% | Z score: -0.29

Cc1ccc(C(=O)NCCOCCn2cccn2)s1
% Inhibition: -5% | Z score: 0.54

Cc1ccsc1-c1nc(CN2CCC[C@@H]2C)c(C)o1
% Inhibition: 3% | Z score: -0.38

Cc1nnsc1C(=O)NCCn1ccn2nccc12
% Inhibition: -12% | Z score: 1.54

CC1=NN(Cc2c(Cl)cccc2Cl)C(=O)C1C(=O)NC1CCS(=O)(=O)C1 (configuration not stated)
% Inhibition: 4% | Z score: -0.43

Cc1cccc(Cn2cccc2CN(C(=O)c2ccc(C(F)(F)F)cc2)[C@@H](C)C(C)C)c1
% Inhibition: -5% | Z score: 0.63

C[C@H]1CN(C(=O)c2ncc(F)cc2F)C[C@]1(O)C1CC1
% Inhibition: 2% | Z score: -0.41

CCn1cnnc1CNC(=O)c1cncc(Br)c1
% Inhibition: -2% | Z score: 0.39

Cn1c(-c2nc(-c3ccccc3C(F)(F)F)no2)cccc1=O
% Inhibition: -21% | Z score: 4.03

CC1CCN(C[C@H]2CCCCCN2C(=O)c2cc(F)ccc2F)CC1
% Inhibition: -1% | Z score: 0.1

O=C(NC1CCc2ccccc21)N1CCCC1CC(O)c1ccco1 (configuration not stated)
% Inhibition: -1% | Z score: 0.05

COc1cc2c(cc1Cl)-n1cccc1C1(CCNCC1)N2
% Inhibition: 37% | Z score: -4.74

COc1cc2ccncc2cc1OC(=O)c1cc(C#N)cn1C
% Inhibition: -9% | Z score: 1.27

Cc1c(NC(=O)c2cc(-c3cccc(O)c3)on2)c(=O)n(-c2ccccc2)n1C
% Inhibition: -13% | Z score: 2.42

O=S(=O)(Nc1ccc(Cc2ccncc2)cc1)N1CCCCC1
% Inhibition: -13% | Z score: 1.32

COc1ccc(NC2(C(=O)N(C)[C@@H](C)c3cccc(OC)c3)CCCC2)cc1
% Inhibition: -7% | Z score: 1.32

CCc1ccc(S(=O)(=O)N2CCCN(C)C[C@@H]2C)s1
% Inhibition: 5% | Z score: -0.64

O=C(N[C@H](c1ccccc1)c1nnn[nH]1)c1cncc2sccc12
% Inhibition: -1% | Z score: 0.2

Cn1nccc1CCC(=O)N[C@H]1CCCC[C@H]1CC(F)(F)F
% Inhibition: -6% | Z score: 1.05

Cc1cnc(N2CCO[C@H](c3ccc(F)cc3)C2)nc1N
% Inhibition: -1% | Z score: 0.16

CC1(C)C[C@@H]1C(=O)NCc1ccc(-c2ncon2)cc1
% Inhibition: 10% | Z score: -1.09

CCCn1c(=O)[nH]c2cc(-c3noc(CN4C(=O)COc5ccc(Cl)cc54)n3)ccc21
% Inhibition: -4% | Z score: 0.49

Cc1n[nH]c(CN2CCc3cc(C(F)(F)F)ccc3C2)n1
% Inhibition: -18% | Z score: 1.8

CCc1cnc([C@H](C)NC(=O)NCC2(CC)CC2)s1
% Inhibition: -12% | Z score: 1.38

CS(=O)(=O)NCCCc1cccc(Br)c1
% Inhibition: 0% | Z score: 0.01

CC(=O)Nc1ccc(CNC[C@H]2Cn3cc(-c4ccc(C)cc4)nc3CO2)cc1
% Inhibition: 11% | Z score: -1.28

c1coc(-c2nnn(CC3CCOCC3)n2)c1
% Inhibition: -11% | Z score: 1.41

CCCO[C@H]1CCCN(C(=O)c2ccc3[nH]cnc3c2)CC1
% Inhibition: 0% | Z score: 0.04

O=C1CN(C(=O)NCC2(Cc3ccccc3)CCC2)CCN1
% Inhibition: -13% | Z score: 2.02

O=C1CCCC1C1COCCN1S(=O)(=O)Cc1ccccc1Cl (configuration not stated)
% Inhibition: -2% | Z score: 0.23

Cc1nccc(N2CCC[C@@H]2CNC(=O)OC(C)(C)C)n1
% Inhibition: -15% | Z score: 1.83

Cc1nc(C)c(C(=O)NCc2csc(N)n2)o1
% Inhibition: -9% | Z score: 0.84

O=C(Cc1nc2cc(Cl)ccc2[nH]1)N1CCCn2cncc2C1
% Inhibition: -4% | Z score: 0.81

COc1ccc(CCc2nc(NC(=O)Cn3cnc4ccccc4c3=O)n[nH]2)cc1
% Inhibition (2 µM): -12% and 1%

CCCS(=O)(=O)N1CCCCC1C(=O)NC(CO)CCC(C)(C)C (configuration not stated)
% Inhibition: -4% | Z score: 0.62

COc1ccc(O[C@H]2COCCN(C(C)=O)C2)cc1
% Inhibition: 3% | Z score: -0.49

CCCN(CC(=O)N(C)C)C(=O)Cc1ccc(Cl)c(Cl)c1
% Inhibition: -2% | Z score: 0.22

Cc1cc(C)[n+]2nc(-c3ccccc3)sc2c1C#N
% Inhibition (2 µM): 3% and 6% | Z score (2 µM): -0.54 and -0.73

Cc1ccc(NC(=O)c2ncn3c2C(=O)N(C2CC2)[C@](C)(C(=O)NC2CCCC2)C3)cc1Cl
% Inhibition: -2% | Z score: 0.29

CO[C@@H](C)C(=O)Nc1ccc(Br)c(Cl)c1F
% Inhibition: -5% | Z score: 1.02

CCCCN(Cc1nnc(C)s1)C1CCCC1
% Inhibition: -6% | Z score: 1.07

CCn1c(=O)c(N2CCC(C(=O)Nc3cccc(F)c3)CC2)c(C)n(-c2ccccc2)c1=O
% Inhibition: 4% | Z score: -0.72

C[C@](O)(CNC(=O)NC1CCOCC1)c1cc2ccccc2o1
% Inhibition: -10% | Z score: 1.76

C[C@H](O)CCN(C)c1ccc(Br)cn1
% Inhibition: -13% | Z score: 2.01

CC(NC(=O)CC1=CCCCC1)C1CCCN(C2CCC2)C1 (configuration not stated)
% Inhibition: 5% | Z score: -0.59

O=C(CCc1nc2ccccc2c(=O)[nH]1)N(CC1CC1)CC1CC1
% Inhibition: -6% | Z score: 0.96

CCN(CC)S(=O)(=O)NCCOc1ccc(Cl)cc1
% Inhibition: -6% | Z score: 0.86

O=C1C[C@@H](c2ccccc2)N(C(=O)CC(F)(F)F)CCN1
% Inhibition: -13% | Z score: 1.68

O=C(Nc1ccc(S(=O)(=O)Nc2nccs2)cc1)c1cnn2c1OCCC2
% Inhibition: 2% | Z score: -0.33

CC[C@](C)(NCCC(=O)N1CCOCC1)c1nccs1
% Inhibition: -15% | Z score: 2.66

Cc1ccc(CCNC(=O)c2ccc3c(c2)nc2n3CCCC2)cc1
% Inhibition: 9% | Z score: -1.68

CCc1cc(N2CCO[C@H](c3nc(C(C)(C)C)cs3)C2)nc(-c2ccncc2)n1
% Inhibition: -8% | Z score: 1.56

C[C@H]1CCCN(c2ccc(Cl)cc2NC(=O)c2coc(CN)n2)C1
% Inhibition: -22% | Z score: 2.42

O=C(NCCc1ccco1)c1cncc(Br)c1
% Inhibition: -7% | Z score: 0.59

CNc1cccc(C(=O)Nc2nncs2)n1
% Inhibition: -13% | Z score: 1.62

Cn1cc2c(NCc3cccc(COC4CCOCC4)c3)ncnc2n1
% Inhibition: -14% | Z score: 1.74

COc1ccc(NC(=O)CCC2CCN(Cc3ccc4c(c3)OCCO4)CC2)c(OC)c1
% Inhibition: 0% | Z score: 0.01

CCCn1c(C)cnc1[C@H]1CCN(S(=O)(=O)c2cnn(CC)c2)C1
% Inhibition: -9% | Z score: 1.36

CCN(CC)C(=O)C1CCCN(C2CCC(=O)N(Cc3ccc(F)cc3F)CC2)C1 (configuration not stated)
% Inhibition: -10% | Z score: 1.68

CCOc1cncc(CNc2nnc(CC)o2)c1
% Inhibition: 1% | Z score: -0.19

COC1(C)CN(Cc2cc(C)ns2)C1
% Inhibition: 13% | Z score: -1.12
